# Laboratory results as given in PubChem BioAssay AID2147 (National Center for Advancing Translational Sciences (NCATS), 2009).
# The campaign covered roughly 230,000 compounds. About 3,600 (1.6%) were called active. Inconclusive means that the source gave no clear call. Such entries were picked first, then a sample of the others. The call rests on the fitted dose curve; in most records, active means well fitted inhibition curve with a large enough effect (not every such curve was filed as active); inconclusive means small, poorly fitted or top-dose-only effect, or another doubt; inactive means no such curve, though single readings can be large or run the other way. Where the call is inconclusive, the potency comes from a doubtful curve fit.
# Biological target: Lysine-specific demethylase 4E (Homo sapiens) (UniProt B2RXH2)
# Sequence of UniProt B2RXH2 (B2RXH2 whole entry, looked up, the tested form may be a part): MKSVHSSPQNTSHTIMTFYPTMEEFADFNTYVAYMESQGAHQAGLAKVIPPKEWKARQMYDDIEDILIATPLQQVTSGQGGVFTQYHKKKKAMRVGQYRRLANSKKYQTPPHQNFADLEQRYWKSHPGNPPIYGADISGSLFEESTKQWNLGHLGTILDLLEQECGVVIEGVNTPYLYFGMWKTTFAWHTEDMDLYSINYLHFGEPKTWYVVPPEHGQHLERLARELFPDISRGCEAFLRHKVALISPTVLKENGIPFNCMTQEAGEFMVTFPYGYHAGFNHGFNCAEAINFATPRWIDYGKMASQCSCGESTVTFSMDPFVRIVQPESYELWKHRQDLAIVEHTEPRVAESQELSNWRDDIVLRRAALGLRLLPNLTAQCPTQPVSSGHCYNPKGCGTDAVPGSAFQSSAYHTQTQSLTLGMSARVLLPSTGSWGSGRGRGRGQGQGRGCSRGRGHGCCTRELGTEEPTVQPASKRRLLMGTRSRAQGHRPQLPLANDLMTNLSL
# Assay: qHTS Assay for Inhibitors of Human Jumonji Domain Containing 2E (JMJD2E)
# Details: JMJD2E catalytic domain, FDH-coupled NADH fluorescence (FDH is formaldehyde dehydrogenase); series mostly up to 57.1 µM
# Further: nearly all actives have a fitted effect of over 50% in size.
# Potency means the concentration at half of the fitted maximal effect; tags describe the fitted curve by direction and shape.
row,SMILES,Potency
1,CC(=O)Nc1cccc(N/C=C(\C=O)c2nc3ccccc3o2)c1,"inconclusive: 31.6 µM [inhibitor, partial curve]"
2,Cc1ccccc1COC(=O)c1nn(-c2ccccc2)nc1N,"inconclusive: 35.5 µM [inhibitor, partial curve]"
3,CCOC(=O)Cc1csc(NC(=O)c2csc(C)c2)n1,inactive
4,Cc1ccc(-n2c(C)cc(=O)cc2C)c(C)c1,inactive
5,Nc1nc(-c2ccc(F)cc2)cc(C(F)(F)F)n1,"inconclusive: 31.6 µM [inhibitor, single point]"
6,Cc1cc(C(=O)O)c(=O)[nH]c1C,"inconclusive: 31.6 µM [inhibitor, partial curve]"
7,O=C(NC1CCCCC1)C(c1cc2c(cc1[N+](=O)[O-])OCO2)N1CCCCC1 (centres undefined),"inconclusive: 2.51 µM [inhibitor, full curve]"
8,CC(C)(C)c1ccc(-c2noc(C(=O)NN)n2)cc1,"inconclusive: 22.4 µM [inhibitor, partial curve]"
9,Cc1ccc(/C=C/C(=O)c2ccccc(=O)c2O)cc1C,active: 28.2 µM
10,O=C(O)/C=C/C(=O)NCc1cn(-c2ccccc2)nc1-c1cccc(Br)c1,inactive
11,Cc1ccc(S(=O)(=O)Oc2ccc3c(c2)O/C(=C\c2cccnc2)C3=O)cc1,inactive
12,O=C(Nc1cnn(Cc2ccc(Cl)cc2Cl)c1)c1noc2c1CCCC2,"inconclusive: 28.2 µM [inhibitor, single point]"
13,COc1ccc(-c2cc(=O)oc3cc(OC(C)C(=O)O)ccc23)cc1 (centres undefined),"inconclusive: 35.5 µM [inhibitor, partial curve]"
14,COc1cc2c(C(=O)N3CCN(Cc4ccc5c(c4)OCO5)CC3)cn(C)c(=O)c2cc1OC,"inconclusive: 25.1 µM [inhibitor, partial curve]"
15,COc1ccc(NC(=O)c2ccco2)cc1NC(=O)c1cc2ccccc2o1,"inconclusive: 35.5 µM [inhibitor, single point]"
16,COC(=O)c1cc(OC)c(OC)cc1NC(=O)c1ccco1,"inconclusive: 39.8 µM [inhibitor, single point]"
17,Cc1c(Cc2ccccc2)c(=O)oc2c(CN(C)C)c(O)c(Cl)cc12,"inconclusive: 3.16 µM [inhibitor, full curve]"
18,COCCNC(=O)CSc1nc2ccc(N3CCOCC3)cc2c(=O)n1Cc1ccc(OC)cc1,"inconclusive: 28.2 µM [inhibitor, partial curve]"
19,CC1CN(C)C(c2ccccc2)C(C)C12NC(=O)NC2=O (centres undefined),inactive
20,COc1ccc(-c2nc(=S)[nH][nH]2)cc1OC,"inconclusive: 28.2 µM [inhibitor, single point]"
21,C[C@@H](C(=O)NCc1ccc(C(F)(F)F)nc1)[C@H]1C[C@]1(C)[C@H](NC(=O)OCc1ccccc1)c1ccccc1,"inconclusive: 39.8 µM [inhibitor, single point]"
22,COc1ccc(N2CSC3=C(C#N)C(c4cccc(OC)c4OC)CC(=O)N3C2)cc1 (centres undefined),"inconclusive: 25.1 µM [inhibitor, single point]"
23,COc1cc([N+](=O)[O-])ccc1NC(=S)Nc1cc(C(=O)OC(C)C)cc(C(=O)OC(C)C)c1,"inconclusive: 31.6 µM [inhibitor, partial curve]"

row,SMILES,Potency
1,Nc1nc(-c2ccc(Cl)c(Cl)c2)c(-c2ccncc2)s1,"inconclusive: 25.1 µM [inhibitor, partial curve]"
2,O=C(Cn1c(=O)oc2ccccc21)Nc1n[nH]c(=S)s1,"inconclusive: 20 µM [inhibitor, single point]"
3,O=C(N/N=C/c1cn(-c2ccccc2)nc1-c1ccc2c(c1)OCCO2)c1ccncc1,"inconclusive: 39.8 µM [inhibitor, single point]"
4,COc1cc(S(=O)(=O)Nc2ccccn2)ccc1F,"inconclusive: 28.2 µM [inhibitor, partial curve]"
5,CCCCC/C=C/C=C1/C(=O)C=C[C@@H]1C/C=C\CCCC(=O)O,inactive
6,CC(=O)c1ccc(Oc2ncnc3sccc23)c(CN2CCOCC2)c1,inactive
7,CCCCc1c(CCC)c(=N)c2ccccc2n1C,"inconclusive: 35.5 µM [inhibitor, partial curve]"
8,COc1cccc2sc(Nc3nnc(-c4ccc(F)cc4)o3)nc12,"inconclusive: 35.5 µM [inhibitor, single point]"
9,CC1(C)Cc2c(sc(NC(=O)C3CC(Cl)=CCC3C(=O)O)c2C#N)CO1 (centres undefined),inactive
10,CC1CCc2c(sc(NC(=O)CN3CCN(C(=O)c4ccco4)CC3)c2C#N)C1 (centres undefined),inactive
11,Cc1cc(=O)[nH]c(N/N=C/C2=C(N3CCOCC3)C(=C\c3ccc(Cl)cc3)/CC2)n1,active: 28.2 µM
12,COC(=O)C1C(c2ccc(OC)c(OC)c2)NC(c2ccc(OC)c(OC)c2)C(C(=O)OC)S1(=O)=O (centres undefined),inactive
13,O=C(O/N=C1\CCS(=O)(=O)c2sccc21)c1ccccc1,inactive
14,C=CCNC(=O)c1ccc(-n2cccc2)cc1,inactive
15,CCOCCCNC(=O)c1ccc(Cn2c(=S)[nH]c3c([nH]c4ccc(OC)cc43)c2=O)cc1,"inconclusive: 35.5 µM [inhibitor, single point]"
16,COCCN1Cc2cccc(C(=O)Nc3cc(C)cc(C)c3)c2C1=O,"inconclusive: 35.5 µM [inhibitor, single point]"
17,Oc1ccc(Br)cc1-c1cc(-c2ccccc2)n[nH]1,"inconclusive: 17.8 µM [inhibitor, partial curve]"
18,O=C(CC1CCCCC1)Nc1ccc(-c2ccc3nncn3n2)cc1,"inconclusive: 31.6 µM [inhibitor, partial curve]"
19,Cc1ccc(-c2nc3ccccn3c2NCc2ccc3c(c2)OCO3)cc1,"inconclusive: 31.6 µM [inhibitor, partial curve]"
20,N[C@@H](CS(=O)O)C(=O)O,"inconclusive: 35.5 µM [inhibitor, single point]"
21,O=C(NCC1CCCO1)C(c1ccccn1)N(Cc1ccccc1Cl)C(=O)CN1C(=O)c2ccccc2S1(=O)=O (centres undefined),inactive
22,COC(=O)[C@H]1[C@H]2C[C@@H]3c4[nH]c5cc(OC)ccc5c4CCN3C[C@H]2C[C@@H](OC(=O)c2ccc(N)cc2)[C@@H]1OC,"inconclusive: 14.1 µM [inhibitor, partial curve]"
23,CCOc1ccc(C(C)NC(=O)Nc2ccccc2C(=O)OC)cc1 (centres undefined),"inconclusive: 39.8 µM [inhibitor, single point]"

row,SMILES,Potency
1,Cc1cc(/C=N/NC(=O)c2ccncc2)c(C)n1-c1ccccc1,inactive
2,O=C(Nc1ccc(Oc2ccc(NC(=O)Nc3ccccc3Cl)cc2)cc1)Nc1ccccc1Cl,inactive
3,Cc1ccc(C(=O)NNC(=O)Cc2csc(-c3csc(C)n3)n2)cc1,inactive
4,O=C(CCN1C(=O)C2CC=CCC2C1=O)N1CCN(c2ccccn2)CC1 (centres undefined),"inconclusive: 28.2 µM [inhibitor, partial curve]"
5,CCc1ccc(Cn2nnc(C(=O)Nc3cccc(C)c3)c2N)cc1,"inconclusive: 35.5 µM [inhibitor, single point]"
6,Cc1ccc2nc3c(cc(C#N)c(=O)n3CCN3CCOCC3)c(=O)n2c1,"inconclusive: 35.5 µM [inhibitor, partial curve]"
7,COc1ccc(CN2CCN(CC(O)Cn3c4ccccc4c4ccccc43)CC2)cc1 (centres undefined),inactive
8,COC(=O)N1C2=C(c3ccccc3[C@@H]1CC(=O)Nc1ccc3ccc4cccc5ccc1c3c45)[C@@H]1C(=O)N(c3ccccc3)C(=O)[C@@H]1[C@H](C)C2,"inconclusive: 5.62 µM [inhibitor, single point]"
9,CCOC(=O)c1c(-c2cccs2)csc1NC(C)=O,inactive
10,CCc1nc(C)ccc1OC(=O)C12CC3CC(CC(C3)C1)C2,"inconclusive: 39.8 µM [inhibitor, single point]"
11,CCOC(=O)C1CCN(Cc2ccc(F)c(Br)c2)CC1,"inconclusive: 39.8 µM [inhibitor, single point]"
12,O=C(CC1C(=O)NCCN1Cc1cccc(Oc2ccccc2)c1)NCCc1cnccn1 (centres undefined),"inconclusive: 28.2 µM [inhibitor, single point]"
13,Cc1ccc2c(c1)c1ncn(CCC3=CCCCC3)c(=O)c1n2C,"inconclusive: 31.6 µM [inhibitor, partial curve]"
14,O=C(c1ccc2c(c1)OCO2)[C@@H]1[C@@H]2C(=O)N(C3CCCCC3)C(=O)[C@@H]2C2c3ccccc3C=CN21 (some centres undefined),"inconclusive: 28.2 µM [inhibitor, partial curve]"
15,Cc1noc(C)c1CSCC(=O)N1CCN(c2ccc(F)cc2)CC1,inactive
16,N#C/C(=N\Nc1ccccc1)C(N)=S,"inconclusive: 25.1 µM [inhibitor, single point]"
17,COc1ccc(C2CC(c3cccs3)=Nc3ccccc3S2)cc1OC (centres undefined),"inconclusive: 28.2 µM [inhibitor, single point]"
18,O=C(Nc1ccc2oc(-c3ccc4ccccc4c3)nc2c1)c1cccs1,"inconclusive: 12.6 µM [inhibitor, partial curve]"
19,O=C(N/N=C/c1ccc(-c2ccc(S(=O)(=O)Nc3ncccn3)cc2)o1)c1cc2ccccc2cc1O,"inconclusive: 28.2 µM [inhibitor, partial curve]"
20,O=C(COc1ccc(Cl)cc1)N1CCCCC1,inactive
21,CCOc1ccc(C2C=C(c3ccccc3)Nc3nnnn32)cc1 (centres undefined),"inconclusive: 28.2 µM [inhibitor, partial curve]"
22,COc1ccc(-c2nc(/C=C3\C(C)=Nc4ccccc43)c(O)o2)cc1,"inconclusive: 39.8 µM [inhibitor, single point]"
23,CC(=O)NS(=O)(=O)c1ccc(NC(=O)/C=C/c2cn(-c3ccccc3)nc2-c2ccccc2)cc1,"inconclusive: 39.8 µM [inhibitor, single point]"
